{
  "source": "the RNAGym collection of RNA variant scans (doi:10.1093/nar/gkz1192)",
  "parents": {"B1": {"name": "CPEB3 Ribozyme (parent)", "chain": "UAACAGGGGGCCACAGCAGAAGCGUUCACGUCGCAGCCCCUGUCAGAUUCUGGUGAAUCUGCGAAUUCUGCUGUAUAUCUC"}},
  "note": "The source gives no read counts; variants with many changes may rest on few reads.",
  "data": [
    {"variants_of": "B1", "test": "self-cleavage, relative activity (ratio to wild type); higher = more cleavage; in vitro, sequencing", "in_short": "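CPEB3 self-cleaving ribozyme mutant libraries were made by rounds of error-prone PCR, barcoded, and transcribed in vitro with T7 RNA polymerase for 5 hours at 37°C. Cleavage occurred during transcription and a 15 min DNase I step before EDTA stop. RNAs were reverse transcribed with template switching and Illumina-sequenced, with DNA sequencing mapping barcodes to variants. Relative activity is the variant's cleaved/total read fraction divided by wild type's (minimum 5 reads), averaged across three batches.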", "values": [
      {"variant": "UAACAGGGGGCCACAGCAGAAGCGUUCACGUCGCAGCCCCCGUCAGAUUCUGGUGAAUCAGCGAAUUCUGCUGUUUAUCUC", "note": "[U41C U60A A75U]", "self-cleavage": 0.62},
      {"variant": "UAACAGGGGGCCACAGCAGAAGCGUUCACGUCGCAGCCCCCGUCAGAUUCUGGUGAAUCAGCGAAUUCUGCUGUAUACCUC", "note": "[U41C U60A U78C]", "self-cleavage": 0.6},
      {"variant": "UAACAGGGGGCCACAGCAGAAGCGUUCACGUCGCAGCCCCCGUCAGAUUCUGGUGAAUCCGCGGAUUCUGCUGUAUAUCCC", "note": "[U41C U60C A64G U80C]", "self-cleavage": 0.46},
      {"variant": "UAACAGGGGGCCACAGCAGAAGCGUUCACGUCGCAGCCCCCGUCAGAUUCUGGUGAAUCCGCGAAUUCUGCUGUUUAUCUC", "note": "[U41C U60C A75U]", "self-cleavage": 0.65},
      {"variant": "UAACAGGGGGCCACAGCAGAAGCGUUCACGUCGCAGCCCCCGUCAGAUUCUGGUGAAUCCCCGAAUUCUGCUGUAUAUCAC", "note": "[U41C U60C G61C U80A]", "self-cleavage": 0.23},
      {"variant": "UAACAGGGGGCCACAGCAGAAGCGUUCACGUCGCAGCCCCCGUCAGAUUCUGGUGAAUCCGCUAAUUCUGCUGUGUAUCUC", "note": "[U41C U60C G63U A75G]", "self-cleavage": 0.45},
      {"variant": "UAACAGGGGGCCACAGCAGAAGCGUUCACGUCGCAGCCCCCGUCAGAUUCUGGUGAAUCCGCGAACUCUGCUGUAUACCUC", "note": "[U41C U60C U66C U78C]", "self-cleavage": 0.18},
      {"variant": "UAACAGGGGGCCACAGCAGAAGCGUUCACGUCGCAGCCCCCGUCAGAUUCUGGUGAAUCCGCGAAUUCAGCAGUAUAUCCC", "note": "[U41C U60C U69A U72A U80C]", "self-cleavage": 0.25},
      {"variant": "UAACAGGGGGCCACAGCAGAAGCGUUCACGUCGCAGCCCCCGUCAGAUUCUGGUGAAUCUGCGAAAUCUGCUGUAUACCUC", "note": "[U41C U66A U78C]", "self-cleavage": 0.42},
      {"variant": "UAACAGGGGGCCACAGCAGAAGCGUUCACGUCGCAGCCCCCGUCAGAUUCUGGUGAAUCUGCGAAUCCUGCUGUAUAACUC", "note": "[U41C U67C U78A]", "self-cleavage": 0.3},
      {"variant": "UAACAGGGGGCCACAGCAGAAGCGUUCACGUCGCAGCCCCCGUCAGAUUCUGGUGAAUCUGCGAAUCCUGCUGUAUACCUC", "note": "[U41C U67C U78C]", "self-cleavage": 0.21},
      {"variant": "UAACAGGGGGCCACAGCAGAAGCGUUCACGUCGCAGCCCCCGUCAGAUUCUGGUGAAUCUGCGAAUUCAGCUGUACAUCUC", "note": "[U41C U69A U76C]", "self-cleavage": 0.76},
      {"variant": "UAACAGGGGGCCACAGCAGAAGCGUUCACGUCGCAGCCCCCGUCAGAUUCUGGUGAAUCUGCGAAUUCAGCUGUACAUCCC", "note": "[U41C U69A U76C U80C]", "self-cleavage": 0.76},
      {"variant": "UAACAGGGGGCCACAGCAGAAGCGUUCACGUCGCAGCCCCCGUCAGAUUCUGGUGAAUCUGCGAAUUCCGCUGUAUAUUUC", "note": "[U41C U69C C79U]", "self-cleavage": 0.79},
      {"variant": "UAACAGGGGGCCACAGCAGAAGCGUUCACGUCGCAGCCCCCGUCAGAUUCUGGUGAAUCUGCGAAUUCCACUGUAUGUCUC", "note": "[U41C U69C G70A A77G]", "self-cleavage": 0.19},
      {"variant": "UAACAGGGGGCCACAGCAGAAGCGUUCACGUCGCAGCCCCCGUCAGAUUCUGGUGAAUCUGCGAAUUCCGCAGUAUAUCCC", "note": "[U41C U69C U72A U80C]", "self-cleavage": 0.23},
      {"variant": "UAACAGGGGGCCACAGCAGAAGCGUUCACGUCGCAGCCCCCGUCAGAUUCUGGUGAAUCUGCGAAUUCCGCCGUAUAUCUC", "note": "[U41C U69C U72C]", "self-cleavage": 0.41},
      {"variant": "UAACAGGGGGCCACAGCAGAAGCGUUCACGUCGCAGCCCCCGUCAGAUUCUGGUGAAUCUGCGAAUUCCGCUGUACAUCUC", "note": "[U41C U69C U76C]", "self-cleavage": 0.76},
      {"variant": "UAACAGGGGGCCACAGCAGAAGCGUUCACGUCGCAGCCCCCGUCAGAUUCUGGUGAAUCUGCGAAUUCUGCAGUACAUCUC", "note": "[U41C U72A U76C]", "self-cleavage": 1.03},
      {"variant": "UAACAGGGGGCCACAGCAGAAGCGUUCACGUCGCAGCCCCCGUCAGAUUCUGGUGAAUCUGCGAAUUCUGCCGUAUAACUC", "note": "[U41C U72C U78A]", "self-cleavage": 1.31},
      {"variant": "UAACAGGGGGCCACAGCAGAAGCGUUCACGUCGCAGCCCCCGUCAGAUUCUGGUGAAUCUGCGAAUUCUGCCGUAUAGCUC", "note": "[U41C U72C U78G]", "self-cleavage": 1.26},
      {"variant": "UAACAGGGGGCCACAGCAGAAGCGUUCACGUCGCAGCCCCCGUCAGAUUCUGGUGAAUCUGCGAAUUCUGCUGCAUAUCAC", "note": "[U41C U74C U80A]", "self-cleavage": 1.27},
      {"variant": "UAACAGGGGGCCACAGCAGAAGCGUUCACGUCGCAGCCCCCGUCAGAUUCUGGUGAAUCUGCGAAUUCUGCUGUAAACCUC", "note": "[U41C U76A U78C]", "self-cleavage": 1.17},
      {"variant": "UAACAGGGGGCCACAGCAGAAGCGUUCACGUCGCAGCCCCCGUCAGAUUCUGGUGAAUCUGCGAAUUCUGCUGUAUACCAC", "note": "[U41C U78C U80A]", "self-cleavage": 0.98},
      {"variant": "UAACAGGGGGCCACAGCAGAAGCGUUCACGUCGCAGCCCCGGUCGGAUCCUGGUGAAUCUGCGAGCUCUGCUGUAUAUCUC", "note": "[U41G A45G U49C A65G U66C]", "self-cleavage": 0.07},
      {"variant": "UAACAGGGGGCCACAGCAGAAGCGUUCACGUCGCAGCCCCGGUCGGAUUCAGAUGAAUCUGCGUAUUCUGCUGUAUACCUC", "note": "[U41G A45G U51A G53A A64U U78C]", "self-cleavage": 0.11},
      {"variant": "UAACAGGGGGCCACAGCAGAAGCGUUCACGUCGCAGCCCCGGUCAGGUUCUGGCGAAUCUGCGAAUUCUGCUGUAUAUCUC", "note": "[U41G A47G U54C]", "self-cleavage": 0.15},
      {"variant": "UAACAGGGGGCCACAGCAGAAGCGUUCACGUCGCAGCCCCGGUCAGUUUCUGGUGAAUCCGCGAAUUCUGCUGUAUAUCUC", "note": "[U41G A47U U60C]", "self-cleavage": 0.11},
      {"variant": "UAACAGGGGGCCACAGCAGAAGCGUUCACGUCGCAGCCCCGGUCAGAUUCUGGUGGAUCUGCGAAUUCUGCUGUAUAACUC", "note": "[U41G A56G U78A]", "self-cleavage": 0.19},
      {"variant": "UAACAGGGGGCCACAGCAGAAGCGUUCACGUCGCAGCCCCGGUCAGAUUCUGGUGAUCCUGCGAAUUCUGCUGUAUAUCUC", "note": "[U41G A57U U58C]", "self-cleavage": 0.14},
      {"variant": "UAACAGGGGGCCACAGCAGAAGCGUUCACGUCGCAGCCCCGGUCAGAUUCUGGUGAAUCUGCGAGUUCUGCAGUAUAUCUC", "note": "[U41G A65G U72A]", "self-cleavage": 0.15},
      {"variant": "UAACAGGGGGCCACAGCAGAAGCGUUCACGUCGCAGCCCCGGUCAGAUUCUGGUGAAUCUGCGAUUUCUGCUGUAUAUCUU", "note": "[U41G A65U C81U]", "self-cleavage": 0.21},
      {"variant": "UAACAGGGGGCCACAGCAGAAGCGUUCACGUCGCAGCCCCGGUGAGAUUCUGGUGGAUCUGCAAUUCCUGCUGUAUAUCUC", "note": "[U41G C44G A56G G63A A65U U67C]", "self-cleavage": 0.35},
      {"variant": "UAACAGGGGGCCACAGCAGAAGCGUUCACGUCGCAGCCCCGGUCAGAUUUUGGUGAAUCUGCGAAUACUGCUGUAUAUCUC", "note": "[U41G C50U U67A]", "self-cleavage": 0.26}
    ]}
  ]
}
